Data: the supplement of paper PMC12217912
The other results are listed elsewhere or left out. The full chains were built here from the parent and the listed change. Values near 0.05 are background.

B1: TEV protease; numbered along this chain (parent)
chain: MGESLFKGPRDYNPISSSICHLTNESDGHTTSLYGIGFGPFIITNKHLFRRNNGTLVVQSLHGVFKVKDTTTLQQHLVDGRDMIIIRMPKDFPPFPQKLKFREPQREERICLVTTNFQTKSMSSMVSDTSCTFPSGDGIFWKHWIQTKDGQCGSPLVSTRDGFIVGIHSASNFTNTNNYFTSVPKNFMELLTNQEAQQWVSGWRLNADSVLWGGHKVFMVKPEEPFQPVKEATQL

Variants of: B1
Assay: raw area under fraction-flipped curve 0-4 h after induction (AUC4h, not background-subtracted), DNA-recorder readout of cleavage of the substrate (dimensionless); higher = more cleavage of the substrate by the protease variant
Conditions: temperature: 34 °C; time window: 0-4 h after rhamnose induction
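Further: Bxb1 expression induced with 0.2% (w/v) L-rhamnose at OD600 near 0.5, cultures sampled hourly, flipped fraction per protease–substrate barcode pair counted by paired-end Illumina sequencing.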

| Variant | area with substrate ENLYFQG | area with substrate ENLYFQH | area with substrate ENLYFQI | area with substrate ENLYFQN | area with substrate ENLYFQP | area with substrate ENLYFQR | area with substrate ENLYFQS | area with substrate ENLYFQT | area with substrate ENLYFQC | area with substrate ENLYFQF | area with substrate ENLYFQL | area with substrate ENLYFQM | area with substrate ENLYFQD | area with substrate ENLYFQQ | area with substrate ENLYFQV | area with substrate ENLYFQW | area with substrate ENLYFQE | area with substrate ENLYFQY | area with substrate ENLYFQK |
| --- | --- | --- | --- | --- | --- | --- | --- | --- | --- | --- | --- | --- | --- | --- | --- | --- | --- | --- | --- |
| Q118M | 0.071 | 0.095 | 0.0509 | 0.0569 | 0.0416 | 0.0629 | 0.118 | 0.0668 | – | – | – | – | – | – | – | – | – | – | – |
| L211H | – | – | 0.0546 | – | 0.0929 | 0.0617 | 0.112 | – | 0.129 | 0.0835 | 0.0532 | 0.0878 | – | – | – | – | – | – | – |
| L211P | – | – | – | 0.0749 | – | – | 0.0767 | – | 0.0986 | – | – | – | 0.0676 | 0.0635 | 0.0561 | 0.0664 | – | – | – |
| L77W | – | 0.0629 | 0.0613 | – | 0.0561 | 0.0601 | 0.0731 | 0.0635 | – | 0.0465 | 0.0514 | 0.0719 | – | – | – | 0.0843 | 0.042 | – | – |
| F226I | 0.101 | – | 0.046 | 0.0916 | 0.0655 | 0.0827 | 0.113 | 0.076 | – | 0.112 | 0.0546 | – | – | – | 0.0728 | 0.0784 | 0.0723 | 0.0662 | – |
| N193G | – | – | – | – | – | 0.0524 | 0.0942 | 0.0677 | – | – | – | – | 0.0721 | – | – | 0.0689 | – | 0.0883 | – |
| K230F | – | – | – | 0.0719 | – | – | 0.0954 | 0.0656 | 0.102 | 0.076 | 0.0595 | – | – | – | 0.0611 | 0.0553 | – | 0.0861 | 0.0603 |
| T115E | – | 0.112 | 0.0641 | – | – | – | 0.106 | 0.0715 | – | – | 0.0719 | 0.0947 | 0.0829 | – | 0.0591 | – | – | 0.112 | – |
| T115F | 0.0999 | 0.0768 | 0.0538 | 0.0668 | 0.0433 | 0.0494 | 0.102 | – | – | – | 0.0432 | – | 0.0582 | – | – | – | – | 0.0807 | 0.0592 |
| P225D | 0.103 | 0.068 | 0.0429 | 0.0821 | – | 0.0685 | 0.103 | – | – | – | – | – | – | – | – | – | 0.0593 | – | – |
| P225V | 0.0841 | 0.0891 | 0.0626 | 0.0664 | – | – | 0.101 | 0.0602 | – | – | 0.0596 | 0.0942 | – | – | – | 0.0714 | – | – | 0.0754 |
| R81K | – | 0.074 | 0.045 | – | 0.0595 | 0.0608 | 0.105 | 0.0622 | – | – | 0.0563 | – | – | – | – | 0.0754 | – | 0.0771 | 0.0365 |
| K98G | 0.0995 | – | 0.0582 | 0.0699 | – | – | 0.104 | 0.0636 | – | – | 0.0638 | 0.0837 | 0.0639 | – | 0.0745 | – | – | 0.0794 | 0.057 |
| P228V | – | – | – | 0.0721 | – | 0.0512 | 0.11 | 0.0783 | 0.113 | 0.0924 | – | – | 0.0831 | – | – | – | – | 0.0612 | – |
| L191D | – | 0.0504 | 0.0617 | – | – | 0.0431 | 0.0592 | 0.0544 | 0.0736 | 0.0479 | 0.0386 | 0.0531 | – | – | – | 0.0541 | – | – | 0.0616 |
| F6Y | 0.0725 | – | 0.0768 | – | – | – | 0.0656 | – | – | 0.0533 | 0.0624 | – | – | – | – | 0.0727 | – | – | – |
| F6V | 0.174 | – | 0.0791 | – | – | – | 0.129 | – | – | – | 0.0719 | – | – | – | – | – | – | – | 0.0496 |

| Variant | area with substrate ENLYFQG | area with substrate ENLYFQH | area with substrate ENLYFQI | area with substrate ENLYFQN | area with substrate ENLYFQP | area with substrate ENLYFQR | area with substrate ENLYFQS | area with substrate ENLYFQT | area with substrate ENLYFQC | area with substrate ENLYFQF | area with substrate ENLYFQL | area with substrate ENLYFQM | area with substrate ENLYFQD | area with substrate ENLYFQQ | area with substrate ENLYFQV | area with substrate ENLYFQW | area with substrate ENLYFQE | area with substrate ENLYFQY | area with substrate ENLYFQK |
| --- | --- | --- | --- | --- | --- | --- | --- | --- | --- | --- | --- | --- | --- | --- | --- | --- | --- | --- | --- |
| N175R | 0.118 | – | 0.0508 | 0.0879 | 0.0657 | 0.057 | 0.125 | 0.0471 | – | – | – | – | – | 0.0689 | 0.0613 | – | – | 0.064 | 0.05 |
| Y179K | – | 0.0659 | 0.0547 | – | – | – | 0.0602 | 0.0611 | – | 0.0466 | 0.0633 | 0.0334 | – | – | – | 0.0471 | – | – | 0.0658 |
| Q194T | 0.112 | – | 0.0559 | 0.0673 | 0.0463 | 0.0486 | 0.11 | 0.0705 | 0.138 | – | – | 0.139 | 0.073 | – | 0.0753 | 0.0763 | – | 0.08 | 0.0854 |
| Q194L | – | – | – | 0.067 | 0.0541 | 0.067 | 0.0842 | – | 0.107 | – | 0.0616 | 0.0575 | – | – | 0.0492 | 0.0566 | – | 0.0669 | 0.065 |
| Q105E | – | – | 0.0293 | – | – | 0.061 | 0.106 | 0.0623 | – | 0.0697 | – | – | – | 0.0722 | – | – | – | 0.0984 | 0.0651 |
| E108M | – | – | 0.0547 | 0.0698 | 0.0555 | 0.0718 | 0.0851 | 0.0683 | – | – | 0.0571 | – | 0.0581 | 0.0659 | 0.0642 | 0.061 | 0.0516 | 0.0586 | 0.0618 |
| C131D | 0.0623 | – | – | 0.0915 | – | 0.0754 | 0.0907 | – | – | – | 0.0633 | – | – | – | – | – | – | – | – |
| T233R | 0.102 | 0.0824 | 0.0657 | 0.0473 | – | 0.0582 | 0.104 | 0.0623 | 0.0795 | – | – | – | – | – | 0.0603 | 0.0802 | – | 0.0784 | 0.0501 |
| T233N | – | – | – | 0.0878 | 0.0782 | – | 0.118 | – | 0.124 | 0.115 | – | 0.123 | – | – | 0.0735 | 0.0751 | – | – | 0.0721 |
| N45M | 0.0722 | 0.0541 | 0.0573 | 0.0851 | 0.0562 | 0.0754 | 0.0648 | – | – | 0.0519 | 0.0675 | 0.0539 | 0.0537 | – | 0.0658 | 0.0618 | 0.0636 | – | 0.0641 |
| V220C | 0.0925 | 0.0709 | 0.0631 | 0.0689 | 0.05 | 0.049 | 0.111 | – | 0.134 | 0.0741 | 0.0552 | – | 0.101 | 0.0584 | – | 0.0885 | – | 0.0693 | 0.0845 |
| G213L | – | – | – | 0.0464 | 0.0535 | 0.0409 | 0.061 | 0.0415 | 0.0629 | – | 0.0619 | 0.0534 | – | – | – | 0.0599 | – | 0.0525 | 0.0457 |
| L73W | – | 0.0674 | – | 0.0591 | – | 0.0505 | 0.0666 | 0.0489 | – | – | 0.0567 | 0.0619 | – | 0.0564 | 0.0577 | – | 0.0698 | 0.0655 | – |
| E223M | – | 0.0669 | 0.0765 | 0.0763 | 0.0731 | 0.0554 | 0.0883 | – | 0.106 | – | 0.0683 | – | 0.076 | 0.0456 | 0.0647 | 0.0587 | – | – | 0.0811 |
| E223H | 0.0982 | – | 0.0635 | 0.0811 | 0.0615 | 0.0551 | 0.096 | 0.0451 | 0.0983 | 0.0789 | 0.0811 | 0.0986 | 0.0694 | – | 0.0616 | 0.0555 | – | 0.0598 | – |
| H47P | 0.0688 | – | 0.0574 | – | – | 0.0551 | 0.0593 | 0.0658 | – | – | 0.0584 | 0.047 | 0.0624 | 0.0676 | – | 0.066 | – | 0.0579 | 0.0516 |
